# ChEMBL document CHEMBL5308541, “MAIP: An Open-Source Tool to Enrich High-Throughput Screening Output and Identify Novel, Druglike Molecules with Antimalarial Activity” (ACS Med Chem Lett, 2023)
# About 540 (0.36%) of roughly 150,000 compounds showed an effect of 50% or more. The list shows a part of the results.
# Test system: Plasmodium falciparum
# Test: Primary screen in NF54 nanoGlo assay, in single point, at 2uM, 72h; a lower Z score goes with more inhibition
# Assay type: functional, Erythrocyte
# Settings: timepoint 72 hour
SMILES,% Inhibition,Z score
COc1ccc(CNC[C@H]2CCN(CC(F)(F)F)C2)cc1Br,-7%,1.11
c1ccc2oc(N3CCC(CNc4ncnc5cnccc45)CC3)nc2c1,3%,-0.43
CC1OC2(CCN(C)CC2)CC1NCCCNc1ccccc1 (stereo not drawn),-4%,0.59
N#Cc1ccc(NC2CCOC(C3CC3)C2)nc1NC1CCOC(C2CC2)C1 (stereo not drawn),-2%,0.35
O=C(Nc1cnccc1N1CCCCC1)c1cc(=O)[nH]c2ccc(Cl)cc12,3%,-0.5
Cc1nc(NCCNC(=O)Cc2c[nH]c3ccccc23)cc(N2CCCC2)n1,6%,-0.95
O=C(Nc1cccc(OCc2nnc(-c3ccc(Cl)cc3)o2)c1)c1ccc2cc[nH]c2c1,-3%,0.6
c1sc(CN2CCC[C@H](CN3CCCCC3)C2)cc1CN1CCCC1,1%,-0.17
CC(C)[C@@H](C(=O)NCc1ccc(O)nc1)N1CCCCC1,-7%,1.23
CN(Cc1cc(-c2ccncc2)no1)C(=O)Cc1n[nH]c2ccccc12,-1%,0.27
CCON1CCC(NCCc2ccnc3ccccc23)CC1,-6%,1.04
Cc1ccc(-c2cc(C(=O)N3CCN4C(COCC4C4CC4)C3)[nH]n2)cc1 (stereo not drawn),13%,-2.27
Cn1ccnc(N2CCC(NCc3ccc4cn[nH]c4c3)CC2)c1=O,4%,-0.77
Fc1ccc(CN2CCCN(c3nc(C(F)(F)F)nc4cnccc34)CC2)cc1,-7%,1.03
FC(F)Oc1ccc(-c2cc(-c3ccc(OC(F)F)cc3)[nH]n2)cc1,2%,-0.31
COc1ccc2nc(NC(=O)N(C)Cc3nc(C)cs3)sc2c1,-6%,1.16
CNc1ncc(C(=O)NC2CCN(CCN(C)C)CC2)cn1,1%,-0.09
O=C(CNc1ccc2nnc(-c3cccnc3)n2n1)N1CCC[C@H](c2nc(C3CCOCC3)no2)C1,0%,-0.09
CN1CCc2ncnc(NC[C@H](O)c3ccc(Cl)c(F)c3)c2C1,2%,-0.28
CC(C(=O)Nc1cccc2ncccc12)N1CCOC(c2ccc(Cl)cc2)C1 (stereo not drawn),9%,-1.4
CN(C)c1ncc(CN2CCN(c3nsc4ccccc34)CC2)cn1,5%,-0.94

SMILES,% Inhibition,Z score
O=c1ccn(Cc2ccc(F)c3cccnc23)c2ccccc12,-10%,1.51
O=C(c1nccc2ccccc12)N(CCN1CCCCC1)[C@H]1CCCNC1,-11%,1.97
COc1ccc(Cl)cc1Nc1cc(C)nc(N)n1,-9%,2.03
O=C1CCN(Cc2ccncc2)CCC[C@H](C(=O)NCCN2CCC(N3CCCCC3)CC2)CCN1,-10%,1.71
O=c1[nH]ccnc1N1CCC[C@H](Nc2cnc3cc(F)c(F)cc3n2)C1,-11%,1.71
O=C(Nc1ccc2[nH]c(-c3ccccc3Cl)nc2c1)c1ccc(N2C(=O)CCC2=O)cc1,-1%,0.13
CN(C)Cc1ccc(-c2ccccc2CNCc2ccc(N(C)CCC#N)cc2)cc1,13%,-2.17
CN(CCN1CCCC1)C(=O)c1ccc(-c2ccc3[nH]ccc3c2)cc1,-5%,0.74
Fc1cnc(NCCCn2ccc3ccccc32)nc1N1CCCC1,-4%,0.83
CN(C)CC(C)(O)CNc1nccc(NC2CCCOC2)n1 (stereo not drawn),10%,-2.21
Cn1ccc(-c2nc(CNc3nc4cc(Cl)cc(Cl)c4o3)cs2)n1,-7%,1.61
O=C(c1ccco1)N1CCC[C@H](NC2CCC3(CCNCC3)CC2)C1,-1%,0.3
CC(C)N1CCN(CCCN2CCCN(C(=O)c3ccc(F)cc3)CC2)CC1,-4%,0.85
NC(=O)[C@@H]1CCCN1C1CCN(c2ccnc3c(F)cccc23)CC1,0%,0.08
Cn1ncc2c(NCc3ccc4c(c3)OCCCO4)nc(C3CCCC3)nc21,2%,-0.28
Cc1cccc(N2CCN(c3ncnc4c3[nH]c3ccccc34)C[C@@H]2C)c1,-8%,1.33
C[C@@H](c1nc(-c2cccc(C(F)(F)F)c2)no1)N1CCN(Cc2csc(-c3ccco3)n2)CC1,-9%,1.85
O=C(c1cccnc1NC[C@H]1CCN(C2CCCCC2)C1)N1CCCC1,3%,-0.52
CN1CCC(N2CCC(CCN(C)C(=O)N[C@@H]3CCCNC3)CC2)CC1,-1%,0.12
O[C@@H](CNC1CCN(c2ncnc3[nH]cnc23)CC1)COC1CCCCC1,-11%,2.45
CCN(CC)S(=O)(=O)c1ccc2[nH]cc(C(=O)NCCCN3CCC(N4CCCCC4)CC3)c(=O)c2c1,-9%,1.47

SMILES,% Inhibition,Z score
Cc1noc(-c2ccc(-c3cccc(C(=O)N4CCC5CNCC54)c3)nc2)n1 (stereo not drawn),-3%,0.66
COc1ncncc1-c1ccc2c(c1)OC(C)(C)C(=O)N2,-4%,0.66
O[C@@H]1CN(c2ccncc2)CCN(C2CCC3(CCNCC3)CC2)C1,-4%,0.84
CC(C)OC(=O)N1CCC(NCCc2csc(-c3cnccn3)n2)CC1,-4%,0.83
COc1ccc(F)cc1CNC1CCN(C)CC1,-4%,0.62
N#Cc1ccc(CN2CCC(Nc3cccc(OCC(F)F)n3)CC2)cc1,2%,-0.27
COCCNc1nc(N[C@@H](C)c2ccccc2)c2ccccc2n1,52%,-11.2
CN1CCC(N2CCC[C@H]2C(=O)N(C)Cc2cccc3cnccc23)CC1,-8%,1.36
Cc1ccc2[nH]c(CNC[C@@H](CO)C3CCC3)cc2c1C,28%,-4.25
CN(C)Cc1ccccc1-c1ccc2cn[nH]c2c1,-3%,0.51
Cc1cccc(NC(=O)CCNC2CCN(c3ccc(F)cc3C)CC2)c1,-5%,0.83
CN1CCCN(CC(=O)Nc2ccc(-c3cccc(F)c3F)cn2)CC1,-6%,1.21
Cn1cc(-c2cccc(CNC(=O)[C@H](C3CC3)N3CCCC3)c2)cn1,-6%,1.37
Cc1ccc2sc(NCCCN(C)C)nc2c1C,-3%,0.52
CCN1CCC[C@@H]1CN1CCCN(C(=O)c2ccc3ncccc3c2)CC1,-2%,0.34
Nc1cc(NC2CCN(Cc3cccc(O)c3)CC2)nc(N2CCCC2)n1,2%,-0.45
COc1ccccc1-c1c(-c2nc3ccccc3s2)c(N)nc2cc(-c3ccc(C)cc3)nn12,6%,-1.14
Cc1ccc(OCCCC(=O)NC2CCCC2CO)cc1C (stereo not drawn),-7%,1.21
Fc1cc(CNc2ncnc3[nH]ncc23)ccc1-n1ccnc1,-2%,0.35
O=C(CC[C@H]1CCCN(Cc2ccc3ncccc3c2)C1)NCc1ccccc1F,-1%,0.25
c1nc(C2CC2)ncc1CCNC1CCN(C2CCCCC2)CC1,-7%,1.14

SMILES,% Inhibition,Z score
COc1ccc(-c2[nH]c3nc(N)[nH]c(=O)c3c2-c2c(N)nc(N)[nH]c2=O)cc1F,-2%,0.4
OCc1ccc(CNCc2cc(O)c3cccc(Cl)c3n2)cc1,-19%,3.28
CN1CCN(CCCNc2nccc(-c3ccccn3)n2)CC1,-5%,1.02
NS(=O)(=O)c1cnc(NC[C@H](O)c2ccc(F)c(F)c2)s1,-10%,1.77
c1nc2c(c(NCc3ccc4c(c3)OCCCO4)n1)CCNCC2,-6%,1.04
CN(CCN1CCCCCC1)C(=O)c1cc2c(Cl)cccc2[nH]1,-2%,0.38
CN1CCCN(CC(=O)N2CCCO[C@@H](CN3CCCCC3)C2)CC1,3%,-0.6
CCCCN1CCOC[C@H]1C(=O)NCCN1CCN(Cc2ccccc2)CC1,-9%,1.56
O=C(N[C@H]1CCCCNC1=O)c1ccc(N2CCC(NCc3cnn(-c4ccccc4)n3)CC2)cc1,-4%,0.77
CNc1ccnc(NC[C@H]2CC[C@H](CO)CC2)n1,-3%,0.53
c1cc(NC2CCN(Cc3ccncc3)CC2)cc(-c2cnco2)c1,-11%,1.88
COc1ccnc(NC2CCN(C(=O)N[C@H]3CCc4[nH]ncc4C3)CC2)n1,6%,-1.28
Cc1cc(-c2nc3cc4[nH]c(=O)[nH]c4cc3[nH]2)ccc1O,-2%,0.37
CC(=O)N(c1nc(CN2Cc3ccccc3OC(C)(C)C2)cs1)C1CC1,-3%,0.56
c1cnc2cc(Oc3ccc4nccnc4c3)ccc2n1,-7%,1.23
CN1CCN(CCCN[C@H]2CCCOc3ccc(Cl)cc32)CC1,7%,-1.2
c1ccc(CCC23CN(Cc4ccccn4)CC2CN(Cc2ccns2)C3)cc1 (stereo not drawn),86%,-17.09
CCCC1(CCC)NC(=O)N(C[C@H]2CCOC2)C1=O,8%,-1.4
CN1CCCC[C@@H]1CCNc1cc(NCCO)ncn1,-6%,1.19
Cc1nc(NCc2ccccc2Cn2ccnc2)c2c(C)csc2n1,7%,-1.17
CC(C)(C)OC(=O)N1CCN(CCCNc2nc(-c3ccncc3)nc3ccccc23)CC1,11%,-1.63
